The results in this text go back to the supplement of paper PMC10326071.

Where “and” joins values, the source holds several entries; their conditions need not be identical. Equal values may be shown once. The list shows a part of the results. Many values rest on one well or one pass, so single values are uncertain.

The test has as its system SARS-CoV-2 nsp3 SARS-unique domain core (SUD-core, nsp3 residues 413-676). Put plainly: apparent dissociation constant Kd (single-concentration BLI fit); higher = weaker binding. Particulars: 100 µM; 25 °C.
`Cc1cnc(Nc2ccc(F)cc2Cl)nc1-c1c[nH]c(C(=O)N[C@H](CO)c2cccc(Cl)c2)c1`: the “apparent dissociation constant Kd” value was 14800 µM.

Consider `NCCNC(=O)Cc1ccc(NC(=O)Cc2ccc(Nc3ncnc4c3ncn4[C@@H]3O[C@H](CO)[C@@H](O)[C@H]3O)cc2)cc1`, for which the “apparent dissociation constant Kd” value turned out to be 215 µM.

On to `CN[C@@H](C)[C@H]1[C@H](O)C[C@@]2(C)[C@@H]3CC[C@H]4C(C)(C)[C@@H](NC)CC[C@@]45C[C@@]35CC[C@]12C`, for which the “apparent dissociation constant Kd” value is 17.8 µM.

Regarding `CC(C)n1c(=O)n(C)c2cnc3cc(F)c(-c4ccc(OCCCN5CCCCC5)nc4)cc3c21`, the “apparent dissociation constant Kd” value was 17.1 µM.

As for `[N-]=[N+]=N[C@@H]1[C@H](O)[C@@H](n2ccc(=O)[nH]c2=O)O[C@H]1CO`, the “apparent dissociation constant Kd” value was 159 µM.

Take `O=C(NOCCO)c1ccc2cncn2c1Nc1ccc(I)cc1F`: the “apparent dissociation constant Kd” value was 39 µM.

Regarding `Cc1ccc2c(NS(=O)(=O)c3ccccc3Cl)cccc2c1Oc1ncccc1-c1ccnc(N[C@H]2CCCNC2)n1`, the “apparent dissociation constant Kd” value was 512 µM.

For the compound `COc1ccc(-c2nc(N3CCOCC3)c3sc(CN(C)c4ncc(C(=O)NO)cn4)cc3n2)cn1`, the “apparent dissociation constant Kd” value stood at 518 µM.

With `CC#CC(=O)N1CC[C@@H](n2c(=O)n(-c3ccc(Oc4ccccc4)cc3)c3c(N)ncnc32)C1`, the “apparent dissociation constant Kd” value came out at 1520 µM.

Turning to `c1cc(Nc2cc(C3CC3)[nH]n2)nc(Nc2ccc3nc[nH]c3c2)n1`, the “apparent dissociation constant Kd” value came out at 76.1 µM.

With `NC(=O)c1ccc(-c2nc(-c3ccc4c(c3)OCCO4)c(-c3ccccn3)[nH]2)cc1`, the “apparent dissociation constant Kd” value was 47.8 µM.

In the case of `Nc1ncnc2c1ncn2C1CCCO1` (centres undefined), the “apparent dissociation constant Kd” value came out at 105 µM.

Turning to `O=c1[nH]c(=O)n([C@H]2C[C@H](O)[C@@H](CO)O2)cc1Br`, the “apparent dissociation constant Kd” value turned out to be 126 µM.

Regarding `O=c1[nH]cc([C@@H]2O[C@H](CO)[C@@H](O)[C@H]2O)c(=O)[nH]1`, the “apparent dissociation constant Kd” value amounted to 64.5 µM.

Take `CCCCCCCCCCCCCCCCOP(=O)([O-])OCC[N+](C)(C)C`: the “apparent dissociation constant Kd” value amounted to 370 µM.

For the compound `CNc1nc(-c2ccc3c(N)n[nH]c3c2)cc(N2C[C@@H](C(=O)NC3CCCCC3)CC[C@H]2C)n1`, the “apparent dissociation constant Kd” value was 3510 µM.

In the case of `CC(C)c1cc(/C=C(\C#N)C(=O)NCCCc2ccccc2)cc(C(C)C)c1O`, the “apparent dissociation constant Kd” value came to 53.1 µM.

On to `O=C(O)[C@H]1O[C@@H](Oc2cc3oc(-c4ccc(O)cc4)cc(=O)c3c(O)c2O)[C@H](O)[C@@H](O)[C@@H]1O`, for which the “apparent dissociation constant Kd” value was found to be 2960 µM.

Take `N#C/C(=C\c1ccc2oc(=O)[nH]c2c1)C(=O)c1ccc(O)c(O)c1`: the “apparent dissociation constant Kd” value came out at 56.5 µM.

As for `Nc1ncnc2c1ccn2[C@@H]1O[C@H](CO)[C@@H](O)[C@H]1O`, the “apparent dissociation constant Kd” value amounted to 302 µM.

With `CCCCCCCC/C=C/CCCCCCCC(=O)OC[C@H]1O[C@@H](n2ccc(N)nc2=O)[C@@H](O)[C@@H]1O`, the “apparent dissociation constant Kd” value stood at 121 µM.

For the compound `N=c1ccn2c(n1)O[C@H]1[C@H](O)[C@@H](CO)O[C@H]12`, the “apparent dissociation constant Kd” value turned out to be 164 µM.

Consider `C#C[C@@]1(O)[C@@H](CO)O[C@@H](n2ccc(N)nc2=O)[C@@H]1O`, for which the “apparent dissociation constant Kd” value was found to be 6320 µM.

On to `Nc1ccn([C@@H]2O[C@H](CO)[C@@H](O)[C@H]2O)c(=O)n1`, for which the “apparent dissociation constant Kd” value was 181 µM.

In the case of `CC(C)(C)Cn1c(N)nc2ccc(-c3[nH]c(C(C)(C)C)nc3-c3ccc(F)cc3)nc21`, the “apparent dissociation constant Kd” value turned out to be 3620 µM.

For `O=C(O)c1nn(Cc2ccc(Cl)cc2Cl)c2ccccc12`, the “apparent dissociation constant Kd” value was 3030 µM.

As for `Nc1ncnc2nc(-c3ccc(N4CCOCC4)nc3)cc(-c3cccc(Br)c3)c12`, the “apparent dissociation constant Kd” value worked out at 3680 µM.

`COc1c(B(O)O)cccc1-c1nc2ccc3[nH]ncc3c2c2c1CCC2`: the “apparent dissociation constant Kd” value came to 338 µM.

Turning to `CC(c1ccc(-c2cnc3c(-c4ccc(S(N)(=O)=O)c5ccccc45)cnn3c2)cc1)N1CCCC1` (centres undefined), the “apparent dissociation constant Kd” value worked out at 2970 µM.

`CCn1cc(-c2ccc3c(c2)CCN3C(=O)Cc2cccc(OC(F)(F)F)c2)c2c(N)ncnc21`: the “apparent dissociation constant Kd” value was 304 µM.

Regarding `CCOc1nc(Nc2ccc(C(=O)N3CCOCC3)cc2OC)nc2[nH]ccc12`, the “apparent dissociation constant Kd” value was 765 µM.

For `O=c1cc(N2CCOCC2)oc2c(-c3ccc4c(c3)OCCO4)csc12`, the “apparent dissociation constant Kd” value was found to be 3190 µM.

As for `Cc1[nH]c(/C=C2\C(=O)Nc3ccc(F)cc32)c(C)c1C(=O)NCCN1CCCC1`, the “apparent dissociation constant Kd” value was 236 µM.

For the compound `CC(C)(C)c1cnc(CSc2cnc(NC(=O)C3CCNCC3)s2)o1`, the “apparent dissociation constant Kd” value came to 138 µM.

As to `Cc1nc(Nc2ncc(C(=O)Nc3c(C)cccc3Cl)s2)cc(N2CCN(CCO)CC2)n1`, the “apparent dissociation constant Kd” value is 1800 µM and 1440 µM.

Consider `COc1ccc(C(OC[C@H]2O[C@@H](n3cnc4c(=O)[nH]cnc43)C[C@@H]2O)(c2ccccc2)c2ccc(OC)cc2)cc1`, for which the “apparent dissociation constant Kd” value amounted to 21.4 µM.

Take `O=C(Nc1ccc2[nH]nc(-c3ccncc3)c2c1)[C@@H]1CCN(CC(=O)N2CCN(c3ccc(-c4ncccn4)cc3)CC2)C1`: the “apparent dissociation constant Kd” value amounted to 2430 µM.

Consider `Cc1c(Br)c(Br)c2c3c1nc(N1CCNCC1)n3CCC2`, for which the “apparent dissociation constant Kd” value came out at 85 µM.

As for `COCc1c(-c2ccc(NC(=O)Nc3cc(C(F)(F)F)ccc3F)c(F)c2)c2c(N)ncnn2c1CN1CCOCC1`, the “apparent dissociation constant Kd” value is 3580 µM.
